The IC50 comes from the fitted curve, where viability falls to half of the control; a limit (>, <) means that the fit lies beyond the doses tested. AUC sums up the same curve from the lowest dose to the 256-fold higher top dose; it is 1 without any effect and falls as sensitivity rises. For part of these data: Any top dose called inferred is not printed in the source and was worked back from the curve model. For part of these data: Drugs with an entry number were screened twice under separate entries, and the two screens often disagree.
Key:
Assay in all cases: Viability of human cancer cell lines after 72 h of drug (GDSC screen)
AZ628 = compound: Cc1ccc(NC(=O)c2cccc(C(C)(C)C#N)c2)cc1Nc1ccc2ncn(C)c(=O)c2c1 [AZ628]; conditions: top dose 4 µM; top dose inferred
Protocol: (§1)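 Human cancer cell lines in 384-well plates, medium with 10% serum, drug for 72 h over a 256-fold dose range (nine 2-fold or five 4-fold steps up to the top dose). Adherent lines were fixed and stained with the nucleic acid dye Syto60, suspension lines read with resazurin; signal relative to control wells, capped at 0 and 100%. One two-parameter sigmoid per drug and line, fitted in a mixed model over all curves with the slope shared within a line.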

AZD6244 = compound: Cn1cnc2c(F)c(Nc3ccc(Br)cc3Cl)c(C(=O)NOCCO)cc21 [AZD6244]; conditions: top dose 4 µM; screen: GDSC drug entry 1498; top dose inferred
Protocol: as §1

AS601245 = compound: N#CC(c1ccnc(NCCc2cccnc2)n1)c1nc2ccccc2s1 [AS601245]; conditions: top dose 8 µM; top dose inferred
Protocol: as §1

EX-527 = compound: NC(=O)C1CCCc2c1[nH]c1ccc(Cl)cc21 [EX-527]; conditions: top dose 20 µM
Protocol: as §1

YM201636 = compound: Nc1ccc(C(=O)Nc2cccc(-c3nc(N4CCOCC4)c4oc5ncccc5c4n3)c2)cn1 [YM201636]; conditions: top dose 5.12 µM; top dose inferred
Protocol: as §1

Cell Line	AUC (AZ628)	IC50 (AZ628) [µM]	AUC (AZD6244)	IC50 (AZD6244) [µM]	AUC (AS601245)	IC50 (AS601245) [µM]	AUC (EX-527)	IC50 (EX-527) [µM]	AUC (YM201636)	IC50 (YM201636) [µM]
LS-123 (large intestine, adherent)	0.887	> 4	0.735	1.49	0.817	6.53	0.974	> 20	0.956	> 5.12
LS-411N (large intestine, adherent)	0.401	0.126	0.577	0.426	0.856	> 8	0.971	> 20	0.858	> 5.12
LS-513 (large intestine, adherent)	0.871	> 4	0.71	1.01	0.958	> 8	0.987	> 20	0.819	3.07
LS-1034 (large intestine, adherent)	0.936	> 4	0.679	0.835	0.858	7.71	0.981	> 20	0.855	4.75
LU-134-A (small cell lung carcinoma, suspension)	0.984	> 4	0.985	> 4	0.907	> 8	0.984	> 20	0.925	> 5.12
LU-139 (small cell lung carcinoma, suspension)	0.949	> 4	0.978	> 4	0.96	> 8	0.976	> 20	0.847	> 5.12
LU-165 (small cell lung carcinoma, suspension)	0.967	> 4	0.984	> 4	0.946	> 8	0.984	> 20	0.753	1.89
LXF-289 (lung adenocarcinoma, adherent)	0.943	> 4	0.86	3.27	0.9	> 8	0.983	> 20	0.959	> 5.12
MC116 (B-cell lymphoma, suspension)	0.996	> 4	0.998	> 4	0.797	2.6	0.999	> 20	0.839	2.11
MC-CAR (haematopoietic neoplasm, suspension)	0.945	> 4	0.98	> 4	0.83	4.3	0.989	> 20	0.795	2.1
MDST8 (large intestine, adherent)	0.811	2.1	0.281	0.0603	0.956	> 8	0.978	> 20	0.932	> 5.12
ME-1 (acute myeloid leukaemia, suspension)	0.661	0.724	0.877	> 4	0.982	> 8	0.989	> 20	0.917	> 5.12
MEG-01 (chronic myeloid leukaemia, suspension)	0.548	0.335	0.746	1.21	0.888	> 8	0.977	> 20	0.948	> 5.12
MFH-ino (soft tissue, adherent)	0.83	3.14	0.713	1.12	0.833	6.48	0.975	> 20	0.962	> 5.12
MFM-223 (breast, adherent)	0.989	> 4	0.969	> 4	0.982	> 8	0.981	> 20	0.982	> 5.12
MHH-PREB-1 (B-cell leukaemia, suspension)	0.954	> 4	0.963	> 4	0.845	4.91	0.98	> 20	0.59	0.548
ML-2 (acute myeloid leukaemia, suspension)	0.571	0.382	0.588	0.422	0.889	7.39	0.99	> 20	0.745	1.46
MLMA (hairy cell leukaemia, semi-adherent)	0.922	> 4	0.961	> 4	0.902	> 8	0.979	> 20	0.671	0.962
MMAC-SF (melanoma, adherent)	0.309	0.0711	0.223	0.0372	0.907	> 8	0.987	> 20	0.987	> 5.12
MN-60 (B-cell leukaemia, suspension)	0.986	> 4	0.987	> 4	0.944	> 8	0.974	> 20	0.904	> 5.12
MOLM-13 (acute myeloid leukaemia, suspension)	0.688	0.807	0.889	> 4	0.81	3.9	0.98	> 20	0.809	2.47
MOLP-8 (myeloma, suspension)	0.658	0.672	0.853	2.93	0.837	5.05	0.979	> 20	0.875	4.7
MOLT-4 (lymphoblastic leukaemia, suspension)	0.935	> 4	0.966	> 4	0.92	> 8	0.991	> 20	0.859	3.04
MONO-MAC-6 (acute myeloid leukaemia, suspension)	0.906	> 4	0.923	> 4	0.834	5.66	0.937	> 20	0.819	3.13
